{
  "source": "patent US7524517B2",
  "about": "“Methods and compositions for P2X receptor calcium entry channels and other calcium entry mechanisms” (UAB Research Foundation, priority 2003, dated 2009)",
  "test_system": "IB3-1 CF cells",
  "assay": "Coulter Counter cell volume assay (regulatory volume decrease)",
  "settings": "NMDG-containing solution, extracellular Ca2+ present",
  "data": [
    {"smiles": "[Cl-].[Cl-].[Zn+2]", "note": "[ZnCl2, zinc chloride]", "values": [
      {"measurement": "regulatory volume decrease (RVD) after hypotonic cell swelling", "value": "corrected"}
    ]}
  ]
}
